Laboratory results published in the supplement of paper PMC10126150.
Sequences with one replicate were seen in a single cluster, so their values are uncertain.

System: ATP
Assay: switch fluorescence ratio, 500 uM ATP over buffer (Cy3 cluster intensity, sum of 5 cycles each) (fold (ratio)); higher = stronger signal-on switching upon ATP binding; sequences stand for … in TCGTCGGCAGCGTCAGATGTGTATAAGAGACAGTTTTTTTTTTTTTTTTTTTTTTTTT…TC
Settings: aptamer strand: ATP DNA aptamer (quencher-CACCTGGGGGAGTATTGCGGAGGAAGG + anchor), 100 nM annealed; ATP concentration: 500 uM; one replicate
Procedure, shortened: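 Per cluster, summed Cy3 intensity from the target cycles was divided by that from the buffer cycles to give the fluorescence ratio, then averaged per switch-domain sequence. Clusters outside 100-1000 RFU were excluded. The Cy3-labelled switching-strand clusters, on a modified Illumina MiSeq flow-cell, were annealed to 100 nM quencher-labelled ATP aptamer and imaged in selection buffer, then after 15 min with 500 uM ATP at 22 °C, for five cycles with NaOH stripping and re-annealing between them.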
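Note: ATP exposure 15 min at 22 °C before imaging.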

Sequence	switch fluorescence ratio
CTGACTTATA	1.04
CTGACTTCTT	0.975
CTGAGAGCCC	1.07
CTGAGAGTAG	1.02
CTGAGAGTTG	0.988
CTGAGATCCG	1.06
CTGAGATGAG	1.01
CTGAGGGAC	1.01
CTGAGGGTCC	0.966
CTGAGGTCAC	1
CTGAGGTCAT	1.1
CTGAGTAGCT	0.977
CTGAGTCGCG	0.997
CTGATACAGT	1.04
CTGATAGAT	1.01
CTGATCTAG	1.02
CTGATGCAAA	1.66
CTGCATTGCG	1.12
CTGCCAAGGG	1.08
CTGCCACGTG	1.01
CTGCCGCATT	5.49
CTGCCGGACT	1.07
CTGCCTACC	1.26
CTGCCTATGA	1.03
CTGCCTCGAC	1.26

Sequence	switch fluorescence ratio
CTGCCTGGTA	0.989
CTGCCTTCTT	1.05
CTGCGCCACA	1.1
CTGCGCTGCG	1.05
CTGCGGAGCG	1.01
CTGCGTGCGT	0.985
CTGCGTTGTG	0.988
CTGCTAGTTA	0.997
CTGCTATCGT	1.03
CTGCTATTAG	1.11
CTGCTATTTC	1.14
CTGCTCGACA	1.05
CTGCTCGCAT	3.52
CTGCTTGAAT	1.06
CTGCTTGAGC	1.04
CTGCTTGGCT	1
CTGGAACCGC	3.67
CTGGAGCTAT	4.31
CTGGAGGTTT	1.03
CTGGAGTAGC	1.65
CTGGATAGAC	1.08
CTGGATGGAA	1.01
CTGGCAGTCG	0.99
CTGGCCAACA	0.987
CTGGCGTTGA	1.04

Sequence	switch fluorescence ratio
CTGGGAAGA	1
CTGGGACCGC	1.06
CTGGGCACTA	1.04
CTGGGCAGCC	0.995
CTGGGCATGT	1.07
CTGGGCTGGA	0.985
CTGGGGACGG	0.973
CTGGGGCCGT	1.05
CTGGGGGGAA	1.05
CTGGGTAAAT	0.978
CTGGGTAATG	1.06
CTGGGTGCTC	1.08
CTGGGTTCCC	0.989
CTGGTAAAAT	0.987
CTGGTAAAGT	0.958
CTGGTAATCA	0.971
CTGGTAATTA	0.976
CTGGTACCGG	1.03
CTGGTACTCG	1.03
CTGGTGTATC	0.977
CTGGTGTTGT	1.04
CTGGTTGGTT	1.02
CTGTAAACAA	2.57
CTGTAAAGTA	0.998
CTGTAAATCG	0.95

Sequence	switch fluorescence ratio
CTGTACGCTC	2.15
CTGTACTTCA	1.08
CTGTAGAGAT	1.04
CTGTAGCCTA	1.31
CTGTATGAGA	1.01
CTGTATTCCA	1.01
CTGTCCTGAA	1
CTGTCCTGCC	1.24
CTGTCGGCGT	0.963
CTGTCGTTCC	1.24
CTGTCTGCAA	6.15
CTGTCTGGAC	1
CTGTGAAAGA	1
CTGTGACAAG	0.965
CTGTGACCCC	1.1
CTGTGAGAGA	0.975
CTGTGAGATT	1.01
CTGTGAGCGA	1.21
CTGTGAGGG	0.951
CTGTGATATC	1.19
CTGTGATCAT	1.02
CTGTGTGCGT	0.993
CTGTGTTACA	0.986
CTGTTAGATT	1
CTGTTCACAC	0.947

Sequence	switch fluorescence ratio
CTGTTGACGG	0.951
CTGTTGTTTC	1.01
CTGTTTCGAA	1.01
CTGTTTCTG	1.02
CTGTTTTACG	1
CTTAAAAGTG	0.955
CTTAAAATTG	1.03
CTTAAACACC	1.08
CTTAAACCGA	1.15
CTTAAAGTCT	1.02
CTTAAGTTTA	1.51
CTTAATGTAT	1.04
CTTAATTTGG	0.98
CTTACATGGG	1
CTTAGACCGC	1.11
CTTAGAGGCG	1.07
CTTAGATTC	1
CTTAGCATAC	3.52
CTTAGGAGAT	1.01
CTTAGGCTTC	1.03
CTTAGGGTCT	0.979
CTTAGGTTTT	1.01
CTTAGTCTAG	0.988
CTTAGTTCAT	1.01
CTTATCTGGT	1.02

Sequence	switch fluorescence ratio
CTTATGAACA	1.04
CTTATGCTGA	1.04
CTTATTACTA	1.02
CTTATTCGA	1.02
CTTATTCTAT	0.991
CTTCAAGTGA	1.01
CTTCAATGAC	1.22
CTTCACAGCG	1.02
CTTCACATCA	1.05
CTTCAGAGAG	1.01
CTTCATAGTG	0.957
CTTCATTGTT	1.02
CTTCCAAAGG	1.14
CTTCCAGATC	1.17
CTTCCAGCG	1.17
CTTCCCAAGT	1.2
CTTCCGGAAG	1.03
CTTCCTCGTG	1.49
CTTCGAATCA	1
CTTCGGCGAG	1.04
CTTCGTAGTT	1.05
CTTCGTTGTG	0.992
CTTCTCGGCT	1.13
CTTCTCTCCT	1.13
CTTCTGGTA	0.953

Sequence	switch fluorescence ratio
CTTCTTTTA	0.965
CTTGAAAATT	1.01
CTTGAAATGT	1.02
CTTGAGTCTT	0.993
CTTGATTGTA	1.01
CTTGCAAACT	1.21
CTTGCAGATG	1.01
CTTGCGGAAC	1.33
CTTGCGGAAT	1.49
CTTGCTGGGT	1.04
CTTGCTTTGC	0.994
CTTGGGACAA	0.987
CTTGGGG	1.02
CTTGGGGACT	1.02
CTTGGTCCCC	1.05
CTTGTAAGGG	1.01
CTTGTACAAC	1
CTTGTCTGCC	0.997
CTTGTGCCCT	0.971
CTTGTGTAAT	0.993
CTTGTGTATA	1
CTTGTGTTTT	0.98
CTTGTTACTA	0.971
CTTGTTCGAT	0.949
CTTTAAAATG	1.03

Sequence	switch fluorescence ratio
CTTTAAAGCA	0.979
CTTTAAAGGC	1.06
CTTTAAATCA	0.979
CTTTACACGC	1.09
CTTTACACTT	1.05
CTTTACGACA	1.25
CTTTACGACC	1.3
CTTTATCGAG	1.07
CTTTATCTTT	0.986
CTTTATGGGT	0.886
CTTTATTGAT	0.962
CTTTCATCGG	0.998
CTTTCCCGC	1.94
CTTTCCGGGT	1
CTTTCGGACC	0.99
CTTTGAATAC	2.35
CTTTGCGTAT	1
CTTTGGATT	1.03
CTTTGGGTGT	1.3
CTTTTAAAC	0.987
CTTTTAAACT	0.986
CTTTTACAAC	0.999
CTTTTACGAT	1.03
CTTTTATTGA	1.05
CTTTTCCGTA	1.04
